# The supplement of paper PMC9588766
# Where a name gives a salt, the structure may show the parent alone. The full ranking holds about 1,900 compounds; the median of “cell viability of compound + 1 nM pemigatinib relative to pemigatinib-only (DMSO) wells” is about 0.95, and the lowest 2% start at about 0.22. The list shows a part of the results.
# System: PDC-DUC18828
# Assay: cell viability of compound + 1 nM pemigatinib relative to pemigatinib-only (DMSO) wells (fraction); PDC-DUC18828 is a patient-derived cholangiocarcinoma cell line; higher = less growth inhibition
# Conditions: first compound 1 µM; pemigatinib concentration 1 nM; 72 h
# Description: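 Selleck Bioactive library screen in the patient-derived FGFR2 fusion-positive ICC cell line PDC-DUC18828 (500 cells/well). Each compound was tested at 1 uM with 1 nM pemigatinib, in triplicate, for 72 h. Viability was read by CellTiter-Glo and normalised to plate DMSO controls. Value is the paper's averaged normalised viability.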
row,SMILES,cell viability
1,Cc1cccc(-c2[nH]c(C(C)(C)C)nc2-c2ccc3c(c2)OCO3)n1 + CCN1C(=O)N(c2c(F)c(OC)cc(OC)c2F)Cc2cnc3[nH]c(CN4CCOCC4)cc3c21 [pemigatinib],1.02
2,CC(NC(=O)c1ccccc1/N=C/c1c(O)ccc2ccccc12)c1ccccc1 (centres undefined) [Sirtinol] + CCN1C(=O)N(c2c(F)c(OC)cc(OC)c2F)Cc2cnc3[nH]c(CN4CCOCC4)cc3c21 [pemigatinib],0.961
3,CCCN1CCCC[C@H]1C(=O)Nc1c(C)cccc1C [Ropivacaine HCl] + CCN1C(=O)N(c2c(F)c(OC)cc(OC)c2F)Cc2cnc3[nH]c(CN4CCOCC4)cc3c21 [pemigatinib],0.982
4,CC(C)(OCc1nn(Cc2ccccc2)c2ccccc12)C(=O)O [Bindarit] + CCN1C(=O)N(c2c(F)c(OC)cc(OC)c2F)Cc2cnc3[nH]c(CN4CCOCC4)cc3c21 [pemigatinib],0.884
5,COc1ccc(NS(=O)(=O)c2sc3ccc(Cl)cc3c2C)cc1N1CCNCC1 + CCN1C(=O)N(c2c(F)c(OC)cc(OC)c2F)Cc2cnc3[nH]c(CN4CCOCC4)cc3c21 [pemigatinib],0.942
6,COc1cc(OC2CCN(C)CC2)ccc1Nc1ncc2c(n1)n(C1CCCC1)c(=O)n2C + CCN1C(=O)N(c2c(F)c(OC)cc(OC)c2F)Cc2cnc3[nH]c(CN4CCOCC4)cc3c21 [pemigatinib],0.92
7,C#CCN[C@@H]1CCc2ccccc21 [Rasagiline Mesylate] + CCN1C(=O)N(c2c(F)c(OC)cc(OC)c2F)Cc2cnc3[nH]c(CN4CCOCC4)cc3c21 [pemigatinib],1
8,CCOc1nc2cccc(C(=O)OCc3oc(=O)oc3C)c2n1Cc1ccc(-c2ccccc2-c2noc(=O)[nH]2)cc1 [Azilsartan Medoxomil] + CCN1C(=O)N(c2c(F)c(OC)cc(OC)c2F)Cc2cnc3[nH]c(CN4CCOCC4)cc3c21 [pemigatinib],1.05
9,O=C(NCC1(c2nc(-c3ccccc3)cs2)CCOCC1)c1cccc(-c2noc(C(F)(F)F)n2)c1 + CCN1C(=O)N(c2c(F)c(OC)cc(OC)c2F)Cc2cnc3[nH]c(CN4CCOCC4)cc3c21 [pemigatinib],0.991
10,Cc1ccc(NC(=O)c2ccc(CN3CCN(C)CC3)cc2)cc1Nc1nccc(-c2cccnc2)n1 [Imatinib (STI571)] + CCN1C(=O)N(c2c(F)c(OC)cc(OC)c2F)Cc2cnc3[nH]c(CN4CCOCC4)cc3c21 [pemigatinib],0.955
11,Cc1ccc(NC(=O)c2ccc(CN3CCN(C)CC3)cc2)cc1Nc1nccc(-c2cccnc2)n1 [Imatinib Mesylate (STI571)] + CCN1C(=O)N(c2c(F)c(OC)cc(OC)c2F)Cc2cnc3[nH]c(CN4CCOCC4)cc3c21 [pemigatinib],1.06
12,Cc1nn(-c2ccccc2)c(C)c1C=NN1CCN(Cc2ccccc2)CC1 + CCN1C(=O)N(c2c(F)c(OC)cc(OC)c2F)Cc2cnc3[nH]c(CN4CCOCC4)cc3c21 [pemigatinib],0.939
13,CC(C)C(=O)Oc1ccc(CO)cc1[C@H](CCN(C(C)C)C(C)C)c1ccccc1 [Fesoterodine Fumarate] + CCN1C(=O)N(c2c(F)c(OC)cc(OC)c2F)Cc2cnc3[nH]c(CN4CCOCC4)cc3c21 [pemigatinib],1
14,O=C(O)C(=O)O.[NH-][C@@H]1CCCC[C@H]1[NH-].[Pt+2] [Oxaliplatin] + CCN1C(=O)N(c2c(F)c(OC)cc(OC)c2F)Cc2cnc3[nH]c(CN4CCOCC4)cc3c21 [pemigatinib],0.922
15,CCc1c2c(nc3ccc(O)cc13)-c1cc3c(c(=O)n1C2)COC(=O)[C@]3(O)CC + CCN1C(=O)N(c2c(F)c(OC)cc(OC)c2F)Cc2cnc3[nH]c(CN4CCOCC4)cc3c21 [pemigatinib],0.125
16,CCOC(=O)c1cnc2ccc(-c3cncc(NS(=O)(=O)c4ccccc4)c3)cn12 + CCN1C(=O)N(c2c(F)c(OC)cc(OC)c2F)Cc2cnc3[nH]c(CN4CCOCC4)cc3c21 [pemigatinib],0.407
17,C[C@@H](Nc1cc(F)cc(F)c1)c1cc(C(=O)N(C)C)cc2c(=O)cc(N3CCOCC3)oc12 + CCN1C(=O)N(c2c(F)c(OC)cc(OC)c2F)Cc2cnc3[nH]c(CN4CCOCC4)cc3c21 [pemigatinib],0.66
18,COc1cc(C(=O)N2CCC(N3CCN(C)CC3)CC2)ccc1Nc1ncc2c(n1)N(C)c1ccccc1C(=O)N2C + CCN1C(=O)N(c2c(F)c(OC)cc(OC)c2F)Cc2cnc3[nH]c(CN4CCOCC4)cc3c21 [pemigatinib],0.986
19,Clc1ccc(C(Cn2ccnc2)OCc2ccsc2Cl)c(Cl)c1 (centres undefined) [Tioconazole] + CCN1C(=O)N(c2c(F)c(OC)cc(OC)c2F)Cc2cnc3[nH]c(CN4CCOCC4)cc3c21 [pemigatinib],1.02
20,C[C@H]1c2cccc(O)c2C(=O)C2=C(O)[C@]3(O)C(=O)C(C(N)=O)=C(O)[C@@H](N(C)C)[C@@H]3[C@@H](O)[C@@H]21 [Doxycycline Hyclate] + CCN1C(=O)N(c2c(F)c(OC)cc(OC)c2F)Cc2cnc3[nH]c(CN4CCOCC4)cc3c21 [pemigatinib],1.02
21,COc1cc2c(cc1OC)CC(=O)N(CCCN(C)C[C@H]1Cc3cc(OC)c(OC)cc31)CC2 [Ivabradine HCl] + CCN1C(=O)N(c2c(F)c(OC)cc(OC)c2F)Cc2cnc3[nH]c(CN4CCOCC4)cc3c21 [pemigatinib],1.07
22,Cc1c(C(=O)NN2CCCCC2)nn(-c2ccc(Cl)cc2Cl)c1-c1ccc(Cl)cc1 [Rimonabant] + CCN1C(=O)N(c2c(F)c(OC)cc(OC)c2F)Cc2cnc3[nH]c(CN4CCOCC4)cc3c21 [pemigatinib],0.882
23,COc1ccc(O)cc1 [Mequinol] + CCN1C(=O)N(c2c(F)c(OC)cc(OC)c2F)Cc2cnc3[nH]c(CN4CCOCC4)cc3c21 [pemigatinib],0.987
24,CCCCCCOC(=O)NC(=N)c1ccc(NCc2nc3cc(C(=O)N(CCC(=O)OCC)c4ccccn4)ccc3n2C)cc1 [Dabigatran Etexilate] + CCN1C(=O)N(c2c(F)c(OC)cc(OC)c2F)Cc2cnc3[nH]c(CN4CCOCC4)cc3c21 [pemigatinib],0.993
